The source of these data is the supplement of paper PMC11417369.

This is one part of the list.

The subject of the test is PF3D7_0420300 AP2 domain 1 (GST-tagged). Nature of the test: gcPBM binding intensity (ln(normalized median fluorescence intensity)); higher = stronger DNA binding. In short, it runs like this:
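In this array assay, P. falciparum DNA-binding domains with a GST tag, expressed in E. coli, were applied for 1 h to primer-extended double-stranded 36-bp intergenic genomic probes and negative controls on an Agilent 4 × 180k array. Bound protein was visualised with Alexa488 anti-GST antibody at 488 nm. Binding intensity is the highest Masliner-normalised natural-log median intensity across replicate spots of either probe orientation.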
Consider “CATAAAAATATTTTCTGTACATATTCATATGACGTT [XGTACX_site3406]”, for which the “gcPBM binding intensity (ln)” value stood at 9.18.

Turning to “ATAAATATTGGGTGCACACACATAATATATATATAT [CACACA_site2272]”, the “gcPBM binding intensity (ln)” value was 9.71.

As to “AGGTTCCCAAAATGCACACCAATGAAATTATTTATT [CACACA_site553]”, the “gcPBM binding intensity (ln)” value stood at 9.23.

Take “AAAATAAAAAATATAACACACAATAAATATATATAT [CACACA_site1926]”: the “gcPBM binding intensity (ln)” value turned out to be 9.84.

Take “ATAATCATTTGGATATTCACAATATTTAAAATTAAA [CACACA_negctrl_site909]”: the “gcPBM binding intensity (ln)” value amounted to 8.84.

As to “GAAAAAAAAAAAAAAAAAAAAAAATTCATTTTTTTT [XGTACX_negctrl_site54]”, the “gcPBM binding intensity (ln)” value is 8.74.

With “ATTTCCTGGCTACTGTGTACTGACCTCCAGACTGCT [XGTACX_site2005]”, the “gcPBM binding intensity (ln)” value turned out to be 9.28.

Regarding “TTTTAACTTTTATATTGTACGTTGTTTATTTTATTT [XGTACX_site7504]”, the “gcPBM binding intensity (ln)” value turned out to be 9.69.

For “TATACAAAATAACTAGCACACATATGTATAAACATA [CACACA_site9236]”, the “gcPBM binding intensity (ln)” value was 9.63.

Turning to “TACATATTTTTATATACACACAATAATTATTATAAA [CACACA_site1659]”, the “gcPBM binding intensity (ln)” value came to 9.37.

As to “TTTTAAATATGCAGATGTACATTATAATGTTTTATT [XGTACX_site2079]”, the “gcPBM binding intensity (ln)” value was determined as 9.3.

Regarding “GATATGTACTAATACACACACATATAGATTTATATA [CACACA_site6610]”, the “gcPBM binding intensity (ln)” value is 9.7.

On to “TATATTTATTATAACACACACATATATATATTATAT [CACACA_site1061]”, for which the “gcPBM binding intensity (ln)” value was determined as 9.7.

As for “ATTTTAAATGTTATGCGTACATATTAATCCTACTTA [XGTACX_site1344]”, the “gcPBM binding intensity (ln)” value is 9.14.

As to “TGTTTGAATAACAAAAAAAAAAAAAAAATTAAAAAA [CACACA_negctrl_site1332]”, the “gcPBM binding intensity (ln)” value was determined as 8.79.

On to “TTTTAAAAATCTATATGTACACAATACGTCTATAAA [XGTACX_site5787]”, for which the “gcPBM binding intensity (ln)” value is 8.98.

“AAAAAAAAAAAAAACACACAAACGCTTTTTTTTTTT [CACACA_site686]”: the “gcPBM binding intensity (ln)” value amounted to 9.35.

On to “TATGAAAATGTTCATACACACATAAAAAAAAAAAAA [CACACA_site3236]”, for which the “gcPBM binding intensity (ln)” value is 9.34.

For the sequence “TACACATACACATACACACGCATAGAAACATACGAA [CACACA_site2137]”, the “gcPBM binding intensity (ln)” value turned out to be 9.68.

For “AAAAAAAAAAAAAAATGTACATATAAATAAATATAT [XGTACX_site7248]”, the “gcPBM binding intensity (ln)” value is 9.25.

“TAATATCCATATAAAACACACATCAAGGTTGTTAAC [CACACA_site175]”: the “gcPBM binding intensity (ln)” value came out at 9.61.

As to “ACAACATAGAGGGGCACACACATATATACATAAAAA [CACACA_site6954]”, the “gcPBM binding intensity (ln)” value came out at 9.9.

In the case of “AATTCATATACAAAAAGTACAAACGAAAAATAAAAA [XGTACX_site2900]”, the “gcPBM binding intensity (ln)” value amounted to 9.43.

For “TATGTGCACCCATATACACACACAAATACAATGATA [CACACA_site8295]”, the “gcPBM binding intensity (ln)” value came to 9.81.

Consider “ATGTTTTATATTATTAATATATATATATATATATAT [CACACA_negctrl_site331]”, for which the “gcPBM binding intensity (ln)” value was 9.37.

Take “GTTATATAAAAATATTGTACATTCTATATAAAGTCA [XGTACX_site4418]”: the “gcPBM binding intensity (ln)” value is 9.05.

Regarding “AGGCATAATTAAAAGTAACAATTATGGAAACGGAGT [GTGCAC_negctrl_site623]”, the “gcPBM binding intensity (ln)” value was found to be 9.55.

For the sequence “TTTATTTATTATTAAAGTACTAAATTATATTATTAT [XGTACX_site2565]”, the “gcPBM binding intensity (ln)” value is 9.05.

Regarding “AAAAAAAAAAAAAACACACACATGCACCTCATATTA [CACACA_site556]”, the “gcPBM binding intensity (ln)” value was 9.7.

As for “AACGAAAACACTACGTGTACCAAATGTCCTGCCAAC [XGTACX_site5735]”, the “gcPBM binding intensity (ln)” value is 9.37.

As for “TATTATATTTGTATGTGTACTTATATGGTTGTAATA [XGTACX_site4548]”, the “gcPBM binding intensity (ln)” value was determined as 9.49.

As to “ATGGAAAAAAAGCATTGTACATTTAAAGAAAAACAG [XGTACX_site6639]”, the “gcPBM binding intensity (ln)” value was 9.4.

Take “AAATATTATCAAACATAAATTATTTTTATCCGTATA [CACACA_negctrl_site771]”: the “gcPBM binding intensity (ln)” value was found to be 9.13.

Turning to “AATGTATATTATTGCACACATATATAAAATTATGCT [CACACA_site1096]”, the “gcPBM binding intensity (ln)” value was 9.45.

Take “AAAAAAATATAGATCTGTACATATATAAATATATGT [XGTACX_site511]”: the “gcPBM binding intensity (ln)” value came to 9.22.

“TCTCTAATTTTTAATACACACAAATAAATAAATAAA [CACACA_site216]”: the “gcPBM binding intensity (ln)” value came to 9.21.

In the case of “ATATATGTTAATAATTGTACAAATCGATAATATATA [XGTACX_site5076]”, the “gcPBM binding intensity (ln)” value was determined as 9.42.

As to “ATCTCTATGATATATACACACAAATATACAAAAAAA [CACACA_site6605]”, the “gcPBM binding intensity (ln)” value is 9.52.

With “ATTTGTGAATATATTCGGTGAACTTTGTTAACACAT [XGTACX_negctrl_site445]”, the “gcPBM binding intensity (ln)” value came out at 9.18.

With “AATCTAATTAAAATCACACATATATTCGTCGTAATA [CACACA_site5855]”, the “gcPBM binding intensity (ln)” value was found to be 9.21.

Turning to “ATATATATATATATAACACACGTGTATTTATCTGTA [CACACA_site5922]”, the “gcPBM binding intensity (ln)” value is 9.42.

As to “AAAAAATTAACGAGTGCACACATATTTAGATAAAAT [CACACA_site8958]”, the “gcPBM binding intensity (ln)” value was 9.61.

“ATTCCATAAGTAAACACACAAATGCCAAAATTTTAT [CACACA_site7491]”: the “gcPBM binding intensity (ln)” value turned out to be 9.51.

Take “ATTCAAAAAAAATCAACACACAGTTACATAGCTCAA [CACACA_site2234]”: the “gcPBM binding intensity (ln)” value is 9.62.

On to “ATATATATATATATGTGTACACAAAAAATATTATAT [XGTACX_site5741]”, for which the “gcPBM binding intensity (ln)” value was 9.42.

In the case of “GCACATATATATGAAACACACATGGAAACATCTCTT [CACACA_site3966]”, the “gcPBM binding intensity (ln)” value was determined as 9.48.

In the case of “ATATAAGGATAACCTAGTACATATTATATGAAACAA [XGTACX_site8459]”, the “gcPBM binding intensity (ln)” value was 9.3.

For the sequence “TACGGTAAATAGTGTTGTACGATACAATTGTTTTCT [XGTACX_site8118]”, the “gcPBM binding intensity (ln)” value worked out at 9.27.

Regarding “AAAATAAATAAATAAATATATATATATATATATATA [TGCATGCA_negctrl_site558]”, the “gcPBM binding intensity (ln)” value worked out at 9.05.

Turning to “AAGGGGAAAAAAAAAAGTACACAAACATAGGATAAT [XGTACX_site377]”, the “gcPBM binding intensity (ln)” value was 9.82.

With “CAATTAAAATGCAACGGTACACATAAAAAAAATAAA [XGTACX_site6216]”, the “gcPBM binding intensity (ln)” value amounted to 9.61.

As to “CCACAAGTATATAGTAGTACAATTTTTTTCTCTTTA [XGTACX_site4403]”, the “gcPBM binding intensity (ln)” value was determined as 9.29.

Regarding “GTATGAAATTATAATAGTACATATAAATAAAAAAAA [XGTACX_site8955]”, the “gcPBM binding intensity (ln)” value is 9.33.

Turning to “TATATATAATATATATATATGGAAATTCTTTTAAAT [XGTACX_negctrl_site50]”, the “gcPBM binding intensity (ln)” value was 8.96.

As to “TGTATTATATGTAAATGTACATTTAATATTTTATAT [XGTACX_site4461]”, the “gcPBM binding intensity (ln)” value stood at 9.25.

With “TTTTTATAAAATTTTATGAGCTCGGAAAAAATAAAC [GTGCAC_negctrl_site637]”, the “gcPBM binding intensity (ln)” value came out at 9.16.
